This is one part of the list.
molecular target: T1, OsWOX13 (Oryza sativa, UniProt Q5QMM3 1-267); assay: protein-binding microarray (RPBM); PBS, 2% BSA, 51.3 ng/ul salmon testes DNA, 50 uM zinc acetate, 200 nM TF, 25 C, 1 h; high values mean tight binding; settings: protein: recombinant; tags: N-terminal polyhistidine and DsRed monomer fusion (pET32a); label: CyDye5-dUTP incorporated in the synthesized complementary strand; 3' TTTTT single-stranded linker to array surface; dsDNA, one strand shown
T1 sequence: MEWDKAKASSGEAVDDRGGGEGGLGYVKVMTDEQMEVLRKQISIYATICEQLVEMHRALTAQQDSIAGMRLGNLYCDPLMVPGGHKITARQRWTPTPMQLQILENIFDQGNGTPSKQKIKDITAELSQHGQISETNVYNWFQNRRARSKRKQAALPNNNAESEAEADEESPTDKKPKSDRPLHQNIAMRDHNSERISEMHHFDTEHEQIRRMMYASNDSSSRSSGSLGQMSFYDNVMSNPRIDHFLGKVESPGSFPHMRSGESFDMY
Method in brief: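 The binding signal is fluorescence intensity per array feature (arbitrary units). Readings came from an Axon 4000B scanner after a washed, 2% BSA-blocked, double-stranded custom Agilent array had been incubated for 1 h at 25 °C with 200 nM protein and 50 µM zinc acetate. The protein was a Ni–NTA-purified transcription factor fused N-terminally to polyhistidine and DsRed, expressed in E. coli BL21-CodonPlus.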

Sequence	binding signal
GTCACAAAATAAATTTACTTTCACCCATCCCACAAGCACCCGGAGTCACCTAGTGCAG	5090 fluorescence intensity (a.u.)
CCATCAATTATTACAAACTCATATGAGTTTAACATCATGACGGAGTCACCTAGTGCAG	27500 fluorescence intensity (a.u.)
TCATATAATAAATAAACGTGCAATAATTGAGGAGGAAGCACGGAGTCACCTAGTGCAG	4160 fluorescence intensity (a.u.)
TGCATGGATTTGATTTTGTGACTGAAGGACCAGATTGCTGCGGAGTCACCTAGTGCAG	10400 fluorescence intensity (a.u.)
GATGCTAACATAAATTAAGATAAAATTTGTATCTTAATGGCGGAGTCACCTAGTGCAG	19300 fluorescence intensity (a.u.)
ATTATGTAAATTTTGACTAATGTTTAGTCGAAGTGCAAGTCGGAGTCACCTAGTGCAG	8100 fluorescence intensity (a.u.)
CTATGATTAGTCATAAGTGTTACAGTAACCCACATGTGCTCGGAGTCACCTAGTGCAG	25700 fluorescence intensity (a.u.)
GTTTAGATTTATTGAGTCGCATGCATCAACCAGTTCAACTCGGAGTCACCTAGTGCAG	5190 fluorescence intensity (a.u.)
GGACAGATTAACTATCACTTAATTTCAGGTTTCCATGTATCGGAGTCACCTAGTGCAG	22700 fluorescence intensity (a.u.)
GTTGATGGAATTTAAGCATATTGATCTAATCTTATTTTAACGGAGTCACCTAGTGCAG	5380 fluorescence intensity (a.u.)
AAAGATTTGATATGATAAGAACAAGCAGCCCTTCTCAAAACGGAGTCACCTAGTGCAG	3690 fluorescence intensity (a.u.)
CCAAATTCATTAAAATTAACAATAACAATTATATTTGTTTCGGAGTCACCTAGTGCAG	10900 fluorescence intensity (a.u.)
CAACATATGATTATTTCACGTTAAGGGAGGCATGTTATTGCGGAGTCACCTAGTGCAG	7360 fluorescence intensity (a.u.)
GATCAATTTAATTTAGGAAGACCTTATAAAACTTAGGAGTCGGAGTCACCTAGTGCAG	13700 fluorescence intensity (a.u.)
ATTGGCTAGATTGGAAGCAAGAGAAGCTGCAGCGAAGGCACGGAGTCACCTAGTGCAG	7860 fluorescence intensity (a.u.)
TTTGCAATTACTGTTGTGTGGTTTCTATTCACAACGTACACGGAGTCACCTAGTGCAG	3930 fluorescence intensity (a.u.)
GCTATAAAATTGACTATAATTGATTTGGAGCCGGTAGTTGCGGAGTCACCTAGTGCAG	63600 fluorescence intensity (a.u.)
ATTATAGATTAAACTAATAATAACATCATTCCCATAGCGCCGGAGTCACCTAGTGCAG	12300 fluorescence intensity (a.u.)
GTTCAATTAATTCCCACCGTTGGTGATCCATGTTTTATATCGGAGTCACCTAGTGCAG	11900 fluorescence intensity (a.u.)
AAATCACATTCTAAATTACAGTATTTTAGAACGGATTGGACGGAGTCACCTAGTGCAG	3530 fluorescence intensity (a.u.)
TCTGAGTGGACGATGATGGATGGCTAGTTCTGACTAGACGCGGAGTCACCTAGTGCAG	13300 fluorescence intensity (a.u.)
CTCCGATTAATGTGGAAATTTCTAACCTCTACAGCGAACGCGGAGTCACCTAGTGCAG	6190 fluorescence intensity (a.u.)
CCTCGTGCGCTTCATCAATTAATTAACTCGTTAATTTTCACGGAGTCACCTAGTGCAG	16100 fluorescence intensity (a.u.)
CAACAAGCTAATTAGCATGGCGAATTAATAATTCGCAACCCGGAGTCACCTAGTGCAG	15400 fluorescence intensity (a.u.)
TTACTGATGGTCTTGATGATTCCTTACAAGATTTTGACTTCGGAGTCACCTAGTGCAG	4020 fluorescence intensity (a.u.)
AATGACAGGTAGAGTACATCAGTGCAGTTATATATATGGACGGAGTCACCTAGTGCAG	8670 fluorescence intensity (a.u.)
ATGATGATGATATACACGCCAAATTGAATTAGAAACTGATCGGAGTCACCTAGTGCAG	6800 fluorescence intensity (a.u.)

Sequence	binding signal
GAACATAATTAATTTCTTTCAATTTGGTCTAGCAGAATTCCGGAGTCACCTAGTGCAG	31500 fluorescence intensity (a.u.)
TCTTCCTCAGATACTGATTGCCATTGTTTTGCAGGTCTCTCGGAGTCACCTAGTGCAG	4830 fluorescence intensity (a.u.)
ATGCACAGCAATTAACAGCCTAACAGAAGACGCGCGTCCGCGGAGTCACCTAGTGCAG	3270 fluorescence intensity (a.u.)
TTACAATGATTTCTAGTTTAGAATCACAACTGCAATTTCACGGAGTCACCTAGTGCAG	10200 fluorescence intensity (a.u.)
TTTAACATATCTTAACGGAACAAATATAAATTGTGTTATGCGGAGTCACCTAGTGCAG	5100 fluorescence intensity (a.u.)
ACTAATAATGAAAATTTCCACACCCTTGCTTTTCTAATTTCGGAGTCACCTAGTGCAG	4470 fluorescence intensity (a.u.)
ATTAGTTGGATTGATTCAAACAAAGAGGTGATAATAATTGCGGAGTCACCTAGTGCAG	11900 fluorescence intensity (a.u.)
GTTCTTCTTTTACTAATAGATTGAAAAGAAAACTATACGTCGGAGTCACCTAGTGCAG	13500 fluorescence intensity (a.u.)
TTCTGGTAAATCAATTATCGCTGACTTTTAGCTGCACCAGCGGAGTCACCTAGTGCAG	22400 fluorescence intensity (a.u.)
GACATAAATAGATAGTCCCTTCGACTATTTGAGCGATGGTCGGAGTCACCTAGTGCAG	5370 fluorescence intensity (a.u.)
TCCAAACTGATTTGGTTTGTGCTCACAAACCATTCATACACGGAGTCACCTAGTGCAG	13300 fluorescence intensity (a.u.)
CTTAATTTAGTAGTTCAGGCAATAGAATATGAGATCTTTTCGGAGTCACCTAGTGCAG	6100 fluorescence intensity (a.u.)
CTTTTAGTAAATTTATAAACCTAAAGTTTACACATCTAAACGGAGTCACCTAGTGCAG	4660 fluorescence intensity (a.u.)
AAAATTAGATTAGTCCCCTCCTACCCAGCTAACTACTGCTCGGAGTCACCTAGTGCAG	32600 fluorescence intensity (a.u.)
GTCGACAAGATTGACCTCGATGTGCCCGCCGCCTGGGATGCGGAGTCACCTAGTGCAG	12600 fluorescence intensity (a.u.)
CAGCTGCAATTATTTGATGACGTAATTAAATCGAATTGAGCGGAGTCACCTAGTGCAG	26400 fluorescence intensity (a.u.)
ACCACTTAATTTACTTCTTTTCATATGTGATCTCCATGTACGGAGTCACCTAGTGCAG	17600 fluorescence intensity (a.u.)
CTGATTGATCCCCTTTGCAGAGTTACGTCCTTGTTAAGCACGGAGTCACCTAGTGCAG	46700 fluorescence intensity (a.u.)
GTCGATTTAATAGCTAATTTATACAATATAGTTGTCTATACGGAGTCACCTAGTGCAG	12300 fluorescence intensity (a.u.)
CTACTTTTGATTTGATTTGGAGTAGTACACTGATTTGATTCGGAGTCACCTAGTGCAG	26900 fluorescence intensity (a.u.)
GCGAATGATGATTGCTGAAAACAAACATCCTGTAGCCCCACGGAGTCACCTAGTGCAG	37300 fluorescence intensity (a.u.)
ATGACCAAATTTCTAACAGATACCAAAGGGCAAAATAGACCGGAGTCACCTAGTGCAG	3760 fluorescence intensity (a.u.)
TTATAATTAGTGTCCAAACATCCGATGTGATAGGGACTTACGGAGTCACCTAGTGCAG	14200 fluorescence intensity (a.u.)
AAAAGCACATGATTATATCTCATTTTATGGTCTTAGAGCACGGAGTCACCTAGTGCAG	3350 fluorescence intensity (a.u.)
ACTAATTAACCAGTGGAACTGTTGCTGTTGCTGTCATGCACGGAGTCACCTAGTGCAG	27400 fluorescence intensity (a.u.)
TTACTAAATTAGGCGATTTTCGGGGCGTGACAGACCATTTCGGAGTCACCTAGTGCAG	7320 fluorescence intensity (a.u.)
TACATTTAAATTTTCCTCAATTATATCATCGTTGGGCAGACGGAGTCACCTAGTGCAG	9470 fluorescence intensity (a.u.)

— PMC7819943, “Rice protein-binding microarrays: a tool to detect cis-acting elements near promoter regions in rice”
